In all, about 310,000 compounds went through this assay and about 14,000 (4.5%) showed an effect of 50% or more. The effect is printed as a negative number. The list shows a part of the results.
Molecular target: human ether-à-go-go-related gene (hERG) potassium channel (human, UniProt Q12809)
Test: primary screen, population patch clamp on CHO cells stably expressing hERG
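Note: peak tail current of the secondary pulse compared with the same well before compound.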

Chain of human ether-à-go-go-related gene (hERG) potassium channel (Q12809 whole entry, looked up): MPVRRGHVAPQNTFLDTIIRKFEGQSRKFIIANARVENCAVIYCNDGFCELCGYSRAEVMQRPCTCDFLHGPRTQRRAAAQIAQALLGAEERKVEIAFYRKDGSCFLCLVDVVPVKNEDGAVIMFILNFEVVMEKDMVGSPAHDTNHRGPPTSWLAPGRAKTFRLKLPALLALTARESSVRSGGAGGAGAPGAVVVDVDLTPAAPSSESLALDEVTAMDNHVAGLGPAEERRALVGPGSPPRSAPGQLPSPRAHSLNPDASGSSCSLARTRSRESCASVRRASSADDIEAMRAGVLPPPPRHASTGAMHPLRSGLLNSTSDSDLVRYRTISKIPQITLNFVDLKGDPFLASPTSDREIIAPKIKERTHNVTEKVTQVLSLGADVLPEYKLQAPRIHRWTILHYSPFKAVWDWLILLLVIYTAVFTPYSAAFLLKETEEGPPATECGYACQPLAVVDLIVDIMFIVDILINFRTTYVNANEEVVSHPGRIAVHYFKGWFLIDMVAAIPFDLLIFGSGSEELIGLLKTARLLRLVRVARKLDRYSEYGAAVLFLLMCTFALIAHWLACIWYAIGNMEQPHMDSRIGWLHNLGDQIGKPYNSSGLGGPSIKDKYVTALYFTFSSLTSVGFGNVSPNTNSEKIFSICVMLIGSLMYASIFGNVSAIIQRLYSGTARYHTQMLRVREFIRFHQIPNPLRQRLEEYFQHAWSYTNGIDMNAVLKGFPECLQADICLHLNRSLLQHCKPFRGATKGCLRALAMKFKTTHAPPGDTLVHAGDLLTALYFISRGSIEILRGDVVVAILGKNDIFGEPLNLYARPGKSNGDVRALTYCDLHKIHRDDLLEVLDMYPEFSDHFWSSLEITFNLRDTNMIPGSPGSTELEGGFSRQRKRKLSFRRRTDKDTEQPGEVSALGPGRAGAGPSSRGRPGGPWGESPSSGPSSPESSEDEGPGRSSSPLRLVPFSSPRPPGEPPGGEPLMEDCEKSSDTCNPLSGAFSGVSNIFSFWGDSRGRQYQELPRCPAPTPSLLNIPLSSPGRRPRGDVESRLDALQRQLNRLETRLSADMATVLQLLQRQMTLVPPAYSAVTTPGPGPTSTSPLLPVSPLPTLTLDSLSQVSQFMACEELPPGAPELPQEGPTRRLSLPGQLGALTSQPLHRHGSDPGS

Going from `CCc1ccc(N(CC(=O)NCc2ccc(F)cc2)C(=O)c2csnn2)cc1` to `O=C(Cc1ccccc1)NCC(=O)OCC(=O)c1ccc(F)cc1`, the “hERG current change (%, negative = inhibition) at 10uM” value rises from -33.1% to -2.04%.

First: CCn1c(N2CCN(S(=O)(=O)c3ccccc3)CC2)nc2ccccc21
Second: CCN(CC)C(=O)Cn1cc(/C=C(\C#N)C(=O)N2CCN(c3ccccc3)CC2)c2ccccc21
The “hERG current change (%, negative = inhibition) at 10uM” value of the first is lower: -43.5% for the first, -13% for the second.

Going from `Cc1ccc(C(=O)/C=C/Nc2ccc(S(=O)(=O)Nc3cc(C)nc(C)n3)cc2)cc1` to `CNS(=O)(=O)c1ccc(NC(=O)c2cnn3c(C(F)F)cc(-c4ccccc4)nc23)cc1`, the “hERG current change (%, negative = inhibition) at 10uM” value falls from 28.1% to 21.5%.

First: Cc1cnc(C(=O)OCC(=O)c2ccc(Cl)cc2)cn1
Second: Cc1cnc(C(=O)N2CCCC(C(=O)c3ccc(Cl)cc3C)C2)cn1 (stereo not drawn)
The “hERG current change (%, negative = inhibition) at 10uM” value of the first is lower: -8.46% for the first, -4.61% for the second.

Going from `Cl.N=c1n(Cc2ccccc2)c2ccccc2n1CC(O)COc1ccccc1` (stereo not drawn) to `NS(=O)(=O)c1ccc(CCNC(=O)CC(c2ccccc2)c2ccccc2)cc1`, the “hERG current change (%, negative = inhibition) at 10uM” value rises from -74.6% to -33.3%.

First: COc1cc(CN2CCN(CC#Cc3ccccc3)CC2CCO)cc(OC)c1 (stereo not drawn)
Second: COc1ccc(C(CC(=O)N2CCCC(C)C2)c2c(OC)cc(OC)c3c(-c4ccccc4)cc(=O)oc23)cc1 (stereo not drawn)
The “hERG current change (%, negative = inhibition) at 10uM” value of the first is lower: -1.09% for the first, 8.57% for the second.

Compared with `Cc1ccc(NC(=O)c2ccc(NC(=O)C3CCCCC3C(=O)O)cc2)cc1` (stereo not drawn), `CC(C)(C)N1C(=O)c2ccc(C(=O)Nc3ccc(C(=O)O)cc3)cc2C1=O` is higher in “hERG current change (%, negative = inhibition) at 10uM” value: 14.4% for the first, 14.5% for the second.

Compared with `CCC(=O)c1c[nH]c(C(=O)N2CCN(c3ccccc3)CC2)c1`, `O=C(/C=C/N1CCOCC1)c1ccc(-c2ccccc2)cc1` is lower in “hERG current change (%, negative = inhibition) at 10uM” value: -30.2% for the first, -33.9% for the second.

Compared with `O=C1CCCN1CCCNC(=S)Nc1ccc(Nc2ccccc2)cc1`, `O=C(NC(=S)N1CCCc2ccccc21)c1ccccc1` is higher in “hERG current change (%, negative = inhibition) at 10uM” value: -10.9% for the first, 14.7% for the second.

First: COc1ccccc1N(C)S(=O)(=O)c1ccc(Cl)c(C(=O)NNC(=O)c2ccccc2O)c1
Second: N/C(=N\OC(=O)c1ccc2ccccc2c1)c1ccccc1Cl
The “hERG current change (%, negative = inhibition) at 10uM” value of the first is lower: -5.92% for the first, 18.2% for the second.

Going from `Nc1cc(Oc2ccc(F)cc2F)cc([N+](=O)[O-])c1` to `NC(=O)c1ncc(C(F)(F)F)cc1Oc1ccc(C(F)(F)F)cc1`, the “hERG current change (%, negative = inhibition) at 10uM” value rises from 15.4% to 24.9%.

Going from `Cc1nn(Cc2c(F)c(F)c(F)c(F)c2F)c(C)c1NC(=O)c1c([N+](=O)[O-])cnn1C` to `COc1ccc(/C=N\NC(=O)c2ccccc2[N+](=O)[O-])cc1COc1c(F)c(F)c(F)c(F)c1F`, the “hERG current change (%, negative = inhibition) at 10uM” value rises from 3.79% to 8.06%.

First: Cc1ccc(NC(=O)C2CSC3(C)CCC(=O)N23)cc1S(=O)(=O)N1CCCCCC1 (stereo not drawn)
Second: COc1ccc(NC(=O)CN2CCCC2c2cccs2)cc1S(=O)(=O)N1CCCCC1 (stereo not drawn)
The “hERG current change (%, negative = inhibition) at 10uM” value of the first is lower: -55.4% for the first, -32.3% for the second.

Going from `O=C(O)c1ccc(/C=C2\SC(=S)N(Nc3ccccc3)C2=O)cc1` to `O=C(NN1C(=O)/C(=C/C=C/c2ccco2)SC1=S)c1ccccc1O`, the “hERG current change (%, negative = inhibition) at 10uM” value rises from 0.467% to 1.86%.

Going from `CC(CNC(=O)c1cncc(O)c1)NC(=O)c1cncc(O)c1.Cl` (stereo not drawn) to `COc1ccc(NC(=O)C(=O)NNC(=O)c2cccs2)cc1`, the “hERG current change (%, negative = inhibition) at 10uM” value rises from 5.05% to 17.9%.

First: COc1cc(C)nc(N2CCCC(C(=O)NCC(C)C)C2)n1 (stereo not drawn)
Second: COc1ccc(/C=C/C(=O)OC2CCCN(C)C2)cc1.Cl (stereo not drawn)
The “hERG current change (%, negative = inhibition) at 10uM” value of the first is higher: 5.28% for the first, -8.09% for the second.

Compared with `COc1ccccc1NC(=O)CCC(=O)c1ccc(-c2ccccc2)cc1`, `COc1ccc(CCNCC(=O)Nc2ccccc2C(F)(F)F)cc1.O=C(O)C(=O)O` is lower in “hERG current change (%, negative = inhibition) at 10uM” value: 28.2% for the first, 1.63% for the second.

Going from `C#CCNC(=O)C1=C[C@@H](c2csc3ccccc23)[C@H](CCCO)[C@@H](OCC)O1` to `CCOc1cc(NC(=S)NCCCN2CCOCC2)c(OCC)cc1NC(=O)c1ccccc1C`, the “hERG current change (%, negative = inhibition) at 10uM” value rises from -21.7% to -12.1%.

First: CC(C)(C)c1ccc(C(=O)NNC(=O)C2CCCCC2)cc1
Second: CC(C)(C)c1ccc(C(=O)NCCn2c(N)c(C#N)c3nc4ccccc4nc32)cc1
The “hERG current change (%, negative = inhibition) at 10uM” value of the first is higher: 13% for the first, 4.74% for the second.

Compared with `COc1ccc(NC(=S)N(CCc2c(C)[nH]c3ccccc23)Cc2cccnc2)cc1`, `COc1ccc2cc(CN(CCc3ccccc3)Cc3nnnn3Cc3ccco3)c(=O)[nH]c2c1` is higher in “hERG current change (%, negative = inhibition) at 10uM” value: -32.8% for the first, -29.7% for the second.

First: CC(=O)OCc1nc2sc3c(c2c(=O)[nH]1)CCCC3
Second: CC(=NCc1cccnc1)c1c(O)n(-c2ccccc2C)c(=O)[nH]c1=O
The “hERG current change (%, negative = inhibition) at 10uM” value of the first is higher: 3.06% for the first, 0.273% for the second.

Compared with `C=CCN1C2CCCC1CC(NC(=O)Nc1cc(C)cc(C)c1)C2` (stereo not drawn), `Cc1cc(Br)c(OCc2ccc(C(=O)N/N=C3\CC(=O)CC(C)(C)C3)cc2)c(Br)c1` is higher in “hERG current change (%, negative = inhibition) at 10uM” value: -51.8% for the first, 5.31% for the second.

First: CCc1cc(/C(Cc2ccc3ccccc3n2)=N\O)c(O)cc1O
Second: CC1(c2ccc3ccccc3c2)NC(=O)NC1=O (stereo not drawn)
The “hERG current change (%, negative = inhibition) at 10uM” value of the first is lower: -3.58% for the first, 13.3% for the second.

Compared with `COC(=O)[C@H]1[C@H]2C[C@@H]3c4[nH]c5cc(OC)ccc5c4CCN3C[C@H]2C[C@@H](OC(=O)/C=C/c2cc(OC)c(OC)c(OC)c2)[C@@H]1OC`, `COc1cc2c(cc1OC)CN(C(=O)c1ccc(OC)c([N+](=O)[O-])c1)CC2` is higher in “hERG current change (%, negative = inhibition) at 10uM” value: -2.22% for the first, 4.43% for the second.

First: COc1ccc(CCNc2cc(=O)[nH]c(N)n2)cc1
Second: Cc1nc2ccc(Cc3ccc4nc(C)[nH]c4c3)cc2[nH]1
The “hERG current change (%, negative = inhibition) at 10uM” value of the first is higher: 15.6% for the first, 3.33% for the second.

Compared with `COc1ccc(-c2nnc(SCC(=O)c3ccc4c(c3)OCCO4)o2)cc1`, `CC(c1ccon1)N(C)Cc1cn(C)nc1-c1ccc2c(c1)OCCO2` (stereo not drawn) is higher in “hERG current change (%, negative = inhibition) at 10uM” value: -5.71% for the first, 13.5% for the second.

Going from `Cc1ccc(S(=O)(=O)N2[C@@H](c3ccc(Cl)cc3)C(C(=O)O)=CC[C@H]2c2ccc(C(C)C)cc2)cc1` to `O=C(Cc1ccc(Cl)cc1)NN1C(=O)c2ccccc2C1=O`, the “hERG current change (%, negative = inhibition) at 10uM” value rises from -18.2% to 4.56%.

First: COc1ccc(C2NC(=O)NC(C)=C2C(=O)Nc2cccc(C)c2C)cc1 (stereo not drawn)
Second: Cc1cccc(NC(=O)Cn2c(=O)oc3ccccc32)c1C
The “hERG current change (%, negative = inhibition) at 10uM” value of the first is lower: -7.54% for the first, 14.8% for the second.

First: Cn1cc(CN(Cc2ccccn2)C[C@@H]2CCC(=O)N2)c(-c2ccccc2F)n1
Second: COc1ccc(-c2cc3n(n2)CCc2nc4ccccc4n2-3)cc1
The “hERG current change (%, negative = inhibition) at 10uM” value of the first is higher: 6.03% for the first, 4.54% for the second.

Going from `CC(C)Cn1c(N)c(C(=O)COC(=O)c2ccncc2)c(=O)n(C)c1=O` to `CCC(=O)Nc1cccc(NC(=O)CSc2nnc(-c3ccc(NS(C)(=O)=O)cc3)n2C)c1`, the “hERG current change (%, negative = inhibition) at 10uM” value rises from -0.546% to 0.13%.

Going from `Cc1nc(SCC(=O)Nc2c(C)n(C)n(-c3ccccc3)c2=O)nc(C)c1C` to `CSc1ccccc1NC(=O)c1c(C)noc1C`, the “hERG current change (%, negative = inhibition) at 10uM” value falls from 3.09% to -2.59%.

Compared with `COc1ccc(C(=O)Nc2ccc3c(c2)nc(CN2CCN(C(C)=O)CC2)n3C)cc1`, `COc1ccc(-n2c(C)nc3cc(C(=O)NCc4ccco4)ccc32)cc1` is lower in “hERG current change (%, negative = inhibition) at 10uM” value: -0.777% for the first, -22.9% for the second.

Compared with `C=CCCCCCCCCC(=O)N1CCN(c2cc3c(cc2F)c(=O)c(C(=O)O)cn3CC)CC1`, `CCOC(=O)N1CCN(CCC(=O)Nc2ccc(F)c(F)c2)CC1` is lower in “hERG current change (%, negative = inhibition) at 10uM” value: 5.07% for the first, 0.204% for the second.

Going from `O=C1CC(NS(=O)(=O)c2cccnc2)CN1c1ccc(F)cc1` (stereo not drawn) to `O=C(NCc1cccs1)C1CC(=O)N(c2ccc(F)cc2)C1` (stereo not drawn), the “hERG current change (%, negative = inhibition) at 10uM” value falls from 0.051% to -17.1%.

Compared with `O=C(O)c1ccccc1SCc1cn2cc(Br)ccc2n1`, `NC(=O)c1ccc(NC(=O)c2cnc3ccccc3n2)cc1` is lower in “hERG current change (%, negative = inhibition) at 10uM” value: 15.6% for the first, 5.85% for the second.

Compared with `O=C(NCCN=C1NS(=O)(=O)c2ccccc21)c1ccc(S(=O)(=O)N2CCOCC2)cc1`, `O=C(COC(=O)c1cc(S(=O)(=O)N2CCOCC2)ccc1F)NCc1ccco1` is higher in “hERG current change (%, negative = inhibition) at 10uM” value: -7.36% for the first, 15% for the second.

Going from `N#CC(C#N)=Cc1cn(-c2ncc(C(F)(F)F)cc2Cl)c2ccccc12` to `CCCOc1cc(C)c(S(=O)(=O)n2nnc3ccccc32)cc1C`, the “hERG current change (%, negative = inhibition) at 10uM” value falls from 6.8% to 6.53%.

Going from `O=C(c1cccc(S(=O)(=O)N2CCCC2)c1)c1nnc(-c2ccncc2)o1` to `CCc1nnc(NC(=O)CN2CCN(Cc3ccc(C)cc3)CC2)s1`, the “hERG current change (%, negative = inhibition) at 10uM” value falls from 5.42% to -57.6%.

Going from `Cc1ccccc1NCc1ccc([N+](=O)[O-])s1` to `O=C(NCc1cccs1)Nc1ccc(Cl)cc1`, the “hERG current change (%, negative = inhibition) at 10uM” value rises from -38.8% to -21.2%.

Going from `O=C(CSc1nc2ccccc2o1)NC(=O)NCc1ccco1` to `COc1ccccc1OCCN1C(=O)S/C(=C\c2ccco2)C1=O`, the “hERG current change (%, negative = inhibition) at 10uM” value rises from -18.2% to -7.56%.

First: CCC(CC)COC(=O)C1=C(C)NC(=O)NC1c1cc(OC)ccc1OC (stereo not drawn)
Second: CC1(C(=O)N2CCC(CC3CC(c4ccc(Cl)cc4)=NO3)(C(=O)NCC3CCCCC3)CC2)CC1 (stereo not drawn)
The “hERG current change (%, negative = inhibition) at 10uM” value of the first is higher: 4.85% for the first, -40.8% for the second.

Compared with `CC12CN3CN(C1)CC(c1ccccc1)(C3)C2=O`, `C=C(C)[C@@H]1CC=C(C(=O)O)CC1` is lower in “hERG current change (%, negative = inhibition) at 10uM” value: 12.7% for the first, -3.03% for the second.

Reference: article PMC4336329 (PLoS ONE, 2015)
